Screen size: about 150,000 compounds; about 540 (0.36%) showed an effect of 50% or more. This is one part of the list.

This assay concerns Plasmodium falciparum. In words: Primary screen in NF54 nanoGlo assay, in single point, at 2uM, 72h; a lower Z score goes with more inhibition. The class given is functional, Erythrocyte. Conditions: timepoint 72 hour.
As to `CC(=O)Nc1nc(CC(=O)N2CCCc3ccccc32)cs1`, the “% Inhibition” value is -11% and the Z score is recorded as 1.28.
The like results for `Cc1nc(N)ncc1C(=O)N1CCCCC[C@H]1c1cccc(F)c1` were, in that order, -6% and 0.86.
Turning to `CN(Cc1ccc(N2CCOCC2)cc1)Cn1c(=S)sc2ccccc21`, the “% Inhibition” value was found to be 4% and the Z score is recorded as -0.49.
The like results for `CCCNC(=O)c1ccc(-c2ccnn2CC)s1` were, in that order, 4% and -0.39.
Taken in the same sequence, the figures for `Cc1nnc(NC(=O)CCCN2C(=O)CCC2=O)s1` were -13% and 2.44.
The like results for `COc1ccc(-c2nn(-c3ccccc3C)c3c2C(C)=CC(=O)[C@H]3CC(=O)Nc2ccccc2C)cc1` were, in that order, -14% and 1.78.
Take `CC(C)(C)c1cnc(CN2CC(O)(c3ccccc3)C2)s1`: the “% Inhibition” value was -11% and the Z score is 1.26.
In the case of `O=C(C1CCN(C(=O)[C@H]2C[C@@H]2c2cccc(O)c2)C1)N1CCCC1` (stereo partly specified), the “% Inhibition” value is reported as -13% and the Z score is reported as 2.36.
Taken in the same sequence, the figures for `CCn1nc(C)c(C(=O)N[C@@H](C)c2cnc(-c3ccncc3)nc2C)c1C` were -9% and 1.71.
Turning to `COC(=O)c1ccccc1N1C(=O)[C@@H]2[C@H](C)N[C@@]3(C(=O)Nc4ccccc43)[C@@H]2C1=O`, the “% Inhibition” value is reported as -3% and the Z score amounted to 0.45.
With `O=C(NCc1ccccc1)NCc1ccc2c(c1)CCN2C(=O)c1ccccc1`, the “% Inhibition” value is listed as -13% and the Z score was determined as 2.54.
The like results for `CNS(=O)(=O)C1CCN(C(=O)C(C)(C)c2ccc(C)cc2)CC1` were, in that order, -13% and 1.06.
As to `CCOC(=O)C1(O)CCN(Cc2ccon2)CC1`, the “% Inhibition” value was found to be 4% and the Z score is reported as -0.59.
For `CCn1c(Cn2cnc3ccccc3c2=O)nc2cc(F)ccc21`, the “% Inhibition” value is -13% and the Z score was 2.4.
Regarding `Cc1ccc(-c2cc(C(=O)N3CCN(c4ccccc4C)CC3)n(-c3ccc(Cl)c(Cl)c3)n2)o1`, the “% Inhibition” value was -16% and the Z score is on record as 1.86.
Consider `CC(=O)Nc1ccc(CN2Cc3nc[nH]c3C[C@H]2C(=O)NCc2ccc(C(F)(F)F)cc2)cc1`, for which the “% Inhibition” value is on record as -2% and the Z score stood at 0.36.
The like results for `O=C(c1cccc(Oc2ccccc2)c1)N1CCc2ccccc2C1` were, in that order, 0% and -0.01.
Taken in the same sequence, the figures for `COc1ccc(C(=O)N(Cc2ccc(N(C)C)cc2)C2(C(=O)NCc3ccccc3)CCN(C(C)=O)CC2)cc1` were 7% and -0.95.
The like results for `COc1ccc(C(=O)N2CCC[C@@H]2Cc2ccc3ccccc3c2)nn1` were, in that order, 12% and -1.66.
`CCc1nnc(NC(=O)[C@H](C)N(C)Cc2sccc2C)s1`: the “% Inhibition” value is -3% and the Z score stood at 0.4.
Taken in the same sequence, the figures for `Cc1oc(-c2ccc3ccccc3c2)nc1CN1CCCC[C@H]1c1nccs1` were -3% and 0.5.
For `Cc1cc(CNC(=O)c2ccc(-c3nnc(C)n3C)cc2)ccc1N(C)C`, the “% Inhibition” value is -13% and the Z score was found to be 1.91.
In the case of `O=C1NC2(CCCC2)C(=O)N[C@@H]1Cc1ccc(O)cc1`, the “% Inhibition” value is listed as 2% and the Z score is -0.29.
Taken in the same sequence, the figures for `O=C(C[C@@]1(O)C(=O)N(Cc2ccc3c(c2)OCO3)c2ccccc21)c1ccc(Cl)cc1Cl` were -12% and 1.63.
As for `O=C(Nc1cccc(-c2nnco2)c1)Nc1cccc2c1CCCC2`, the “% Inhibition” value was -20% and the Z score was 3.59.
Taken in the same sequence, the figures for `Cc1ccc(C2CC(C)CCN2C(=O)c2ccnc3c2nnn3C)o1` (stereo unspecified) were -15% and 1.98.
The like results for `Cc1cc(-c2cnn(C)c2)n(C[C@H](C)O)n1` were, in that order, -14% and 1.43.
Taken in the same sequence, the figures for `Cc1c(NC(=O)[C@H]2COCCN2)cnn1CCC(C)C` were -8% and 0.98.
For the compound `O=C(NCC1(O)CCCCC1)[C@H]1CCC(=O)N(Cc2ccccn2)C1`, the “% Inhibition” value was -12% and the Z score was 1.61.
Taken in the same sequence, the figures for `Cc1cccnc1NC(=O)C1CCN(S(=O)(=O)c2ccc3c(c2)C[C@H](C)N3C(=O)C2CCC2)CC1` were -4% and 0.69.
The like results for `CCOC(=O)[C@@]1(C(C)C)CCN(Cc2ncc(C)o2)C1` were, in that order, -16% and 2.16.
The like results for `CC(C)CCC(=O)NCC(=O)Nc1cc(C(C)C)n[nH]1` were, in that order, 0% and 0.06.
With `O=C1[C@@H]2C[C@H](F)CN2C(=O)N1c1ccc2occc2c1`, the “% Inhibition” value was -6% and the Z score is reported as 0.56.
Taken in the same sequence, the figures for `COc1cccc(C(CC(=O)N2CCCC2)c2cnc3n2C(C)CCC3)c1` (stereo unspecified) were -1% and 0.11.
Taken in the same sequence, the figures for `Cn1nnc(CNC(=O)N2Cc3cccnc3N3CCC[C@@H]3C2)n1` were -6% and 1.24.
Taken in the same sequence, the figures for `CCn1cc(C(=O)Nc2ccc(OCCN3CC[C@H](C)C3)cc2)cn1` were 5% and -0.92.
As to `COc1ccc(Cl)cc1-n1nc(CC(N)=O)nc1[C@H](C)n1ccnc1C`, the “% Inhibition” value amounted to 1% and the Z score is reported as -0.14.
Turning to `COC(=O)[C@H](C(=O)NCc1ccc(Cl)cc1)C1CCCCCC1`, the “% Inhibition” value was -6% and the Z score turned out to be 0.86.
Regarding `COc1cccc(C(C)NC(C)C(=O)N2CCC[C@@H]2CO)c1` (stereo partly specified), the “% Inhibition” value was -7% and the Z score was 0.96.
For the compound `COc1ccc(Cl)cc1C(C)(C)NC(=O)c1ccns1`, the “% Inhibition” value is recorded as 6% and the Z score was -0.91.
For the compound `COc1ccc(OC)c(C2=NS(=O)(=O)N(C)C(C(=O)N3CCN(c4ccccc4)CC3)=C2)c1`, the “% Inhibition” value is listed as -10% and the Z score was 1.88.
Taken in the same sequence, the figures for `COCCN(Cc1cc(C)cc(C)c1)S(=O)(=O)N(C)C` were 1% and -0.11.
In the case of `CC(C)c1nn(C)cc1-c1cn(C)nc1C#N`, the “% Inhibition” value was -9% and the Z score is given as 1.11.
Taken in the same sequence, the figures for `FC(F)(F)C1=CCN(c2cc(N3CCCC3)ncn2)CC1` were -19% and 2.22.
For the compound `CC(C)c1ocnc1C(=O)N1CCC2(CCCCC2)C1`, the “% Inhibition” value is reported as 4% and the Z score is -0.72.
`CC(=O)N(C)c1cccc(NS(=O)(=O)C[C@H](C)c2ccccc2)c1`: the “% Inhibition” value is 12% and the Z score is -1.79.
Take `CCCCNC(=O)CN1C=C(c2nc(C)no2)C(C)=NS1(=O)=O`: the “% Inhibition” value was -9% and the Z score is listed as 1.1.
The like results for `CN(CC(=O)Nc1ccn(C)n1)Cc1cscn1` were, in that order, -8% and 0.93.
The like results for `C[C@@H](CN1CCOCC1)NC(=O)c1cc(C2CC2)[nH]n1` were, in that order, -6% and 1.21.
Taken in the same sequence, the figures for `CCN(CCC(F)(F)F)C(=O)c1ccc(N(C)C)cc1F` were -12% and 1.6.
For the compound `CCC[C@]1(C(=O)O)CCCN(C(=O)CCc2ccncc2)C1`, the “% Inhibition” value was determined as 4% and the Z score is on record as -0.67.
`O=C(Cn1ccc(-c2ccccc2)nc1=O)N1CCCCCC1`: the “% Inhibition” value is recorded as -16% and the Z score is given as 1.97.
For `NC(=O)CCn1ccc(Nc2ncc(Br)cn2)n1`, the “% Inhibition” value is on record as -8% and the Z score stood at 0.81.

What is called % Inhibition is the relative decrease from the control value, in per cent.

The record behind these values is ChEMBL document CHEMBL4888484, “Replenishing the malaria drug discovery pipeline: Screening and hit evaluation of the MMV Hit Generation Library 1 (HGL1) against asexual blood stage Plasmodium falciparum ,using a nano luciferase reporter read-out” (2022).
